# Reference: PubChem BioAssay AID1963576 (National Center for Advancing Translational Sciences (NCATS), 2024)
# In all, about 46,000 compounds went through this assay and about 60 (0.1%) were called active. About 3% were inconclusive and are not listed. The call rests on the fitted dose curve; in most records, active means well fitted inhibition curve with a large enough effect; inconclusive means small, poorly fitted or top-dose-only effect; inactive means no such curve, though single readings can be large or run the other way. This is one part of the list.
# Assay: Primary qHTS assay for Inhibitors of ovarian cancer metastasis using an organotypic tumor microenvironment (TME) model. Further: nearly all actives have a fitted effect of over 65% in size.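 On activity change, negative = inhibition: plate controls were DMSO wells for no effect and tomatine positive control wells for full effect.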
# Settings: SKOV3ip1-GFP adhesion/invasion on 3D omental model, fluorescence; series mostly up to 45.8 µM; activity change, negative = inhibition: at the top concentration
# In short: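 qHTS, 4-pt dose (0.36-46 umol/L); SKOV3ip1-GFP, 1,200 cells/well, no FBS; primary omental fibroblast/mesothelial co-culture 48 h pre-grown; 2 h RT + 16 h 37 C; PBS wash, 4% PFA; GFP count 488/509 nm.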
SMILES,"activity change, negative = inhibition",outcome
CCCNC(=O)Cn1c(=O)n(CC2CCC(C(=O)NC)CC2)c(=O)c2sccc21 (centres undefined),inactive: 13.9%,
CCOc1cccc(NC(=O)C2CC(=O)N(CC)C(=Nc3ccc(F)cc3)S2)c1 (centres undefined),inactive: 8.01%,
O=C1CS(=O)(=O)C2(C(=O)N(Cc3ccccc3Cl)c3ccccc32)N1c1ccc(F)cc1 (centres undefined),inactive: 4.18%,
Cc1ccc(NC(=O)/C(C#N)=C/c2ccc(-c3ccc(Cl)c(C(=O)O)c3)o2)cc1C,inactive: 5.97%,
Cc1cc(C)c(NC(=O)CSc2ncc3c(n2)-c2cc(Cl)ccc2N(C)S3(=O)=O)c(C)c1,,inactive
CCC(C)(C)NC(=O)C1CCN(S(=O)(=O)c2ccc3c(c2)CCCN3C(C)=O)CC1,inactive: 0.459%,
COCCCNC(=O)c1cc2cc(S(=O)(=O)N3CCCCC3)ccc2n1C,,inactive
Cc1cccc(C(=O)Nc2ccc(S(=O)(=O)N3CCC(c4nc5ccccc5s4)CC3)cc2)c1,inactive: -3.2%,
Cc1ccc2nc(NC(=O)c3nc(SCc4ccccc4F)ncc3Cl)sc2c1,,inactive
COc1ccc(NC(=O)c2cc(C(C)=O)n3ccccc23)cc1,inactive: -0.9%,
COc1ccc(NC(=O)c2oc3ccc(S(=O)(=O)N4CCCCC4)cc3c2C)cc1Cl,inactive: 3.01%,
Cc1ccc(CN2CCC(CNC(=O)c3cnn(-c4ccccc4)c3C3CCN(C(=O)OC(C)(C)C)CC3)CC2)cc1,inactive: 6.19%,
COCCn1c(=O)[nH]c2cc(C(=O)N3CCN(c4ccc(Cl)cc4)CC3)ccc2c1=O,inactive: -9.85%,
O=C(O)c1ccc(NCc2nc3ccccc3n2CCOc2ccccc2Cl)cc1,inactive: -4.22%,
O=C(CSc1nc(=O)n(Cc2cccnc2)c2c1CCC2)Nc1cccc(Cl)c1,inactive: -1.91%,
Cc1nc(-c2ccc(Cl)cc2)sc1CCNC(=O)C(=O)Nc1ccc2c(c1)OCCO2,inactive: -0.354%,
CCOc1cc2[nH]c(=O)n(Cc3ccc(C(=O)N4CCN(c5ccccc5)CC4)cc3)c(=O)c2cc1OCC,inactive: -16%,
CSc1ncc(Cl)c(C(=O)Nc2cc(C(F)(F)F)ccc2Cl)n1,inactive: -1.56%,
Cc1ccc(-c2nn(-c3ccc(F)cc3F)c3c2cnc2ccc(F)cc23)cc1,inactive: 4.28%,
COc1ccc(N2CC(NC(=O)C(=O)c3c[nH]c4ccccc34)CC2=O)cc1 (centres undefined),inactive: -9.81%,

SMILES,"activity change, negative = inhibition",outcome
COc1ccc(CNC(=O)CC(C)n2nc(C)cc2C)cc1 (centres undefined),inactive: 8.7%,
Cc1cc(C)cc(NC(=O)N2CCC(C(N)=O)(N3CCCCC3)CC2)c1,inactive: -35.7%,
COc1ccc(N(C)C(=O)c2nn(-c3ccc(C)cc3)c(=O)n(C)c2=O)c(OC)c1,inactive: 5.12%,
CCOC(=O)N1CCC(NC(=O)c2cnn(-c3ccc(F)cc3)c2-n2cccc2)CC1,,inactive
CCOCCn1ccc2c(OCC(=O)NCc3ccc(F)cc3)cccc2c1=O,,inactive
CCN1c2ccccc2-n2cccc2C12CCN(C(=O)Nc1ccccc1Br)CC2,inactive: 8.87%,
CC1CCCN(c2ncnc3c2cnn3-c2ccc(F)cc2)C1 (centres undefined),inactive: -1.46%,
CCCCn1cc(S(=O)(=O)c2ccccc2)c(=O)c2cc(F)c(N3CCN(CCC)CC3)cc21,inactive: -22.9%,
O=C(CCSCc1cccc(Cl)c1)NCc1ccccc1Cl,inactive: 3.1%,
O=c1c(N2CCN(c3ccccc3)CC2)csc2ccc(Cl)cc12,inactive: 3.02%,
CC(C)Oc1ccc(C(=O)N2CCN(c3nc4c(F)cc(F)cc4s3)CC2)cc1,inactive: -3.5%,
O=C(CSc1ncc2c(n1)-c1cc(Cl)ccc1N(Cc1ccccc1)S2(=O)=O)Nc1ccc(F)cc1F,,inactive
Cc1ccccc1-n1c(SCC(=O)Nc2ccc(Cl)cc2Cl)nc(O)cc1=O,inactive: 3.19%,
CC(C)(C)c1ccc(-c2nc(SCCOc3ccc(Cl)cc3)n3[nH]c(=O)cc3n2)cc1,inactive: -15.1%,
COc1ccc(-c2nc3c4ccccc4n(CC(=O)Nc4ccc(C(C)C)cc4)c(=O)n3n2)cc1,inactive: 4.2%,
COc1ccc(NC(=O)CSC2=Nc3ccccc3C3=NC(CC(=O)NCc4ccccc4OC)C(=O)N23)cc1Cl (centres undefined),inactive: 5.42%,
COc1ccc(C2CC(=O)N(Cc3ccccc3C)c3c2c(C)nn3-c2nc(C)cc(C)n2)c(OC)c1 (centres undefined),inactive: -1.39%,
COc1ccc(S(=O)(=O)c2c(O)c(C)cc(NS(=O)(=O)c3ccc(Cl)cc3)c2C(C)C)cc1,inactive: 12%,
COc1ccc(-c2noc(-c3ccc(N4CCN(C)CC4)c([N+](=O)[O-])c3)n2)cc1,inactive: 8.2%,
CCc1sc(Nc2cccc(C)c2)nc1-c1cc2cccc(OC)c2oc1=O,inactive: -0.164%,

SMILES,"activity change, negative = inhibition",outcome
CC(=O)N1CCc2c(sc3c2c(=O)n(-c2ccc(F)cc2)c(=O)n3Cc2cc(C)ccc2C)C1,,inactive
Cc1ccc(S(=O)(=O)N2CCc3cc(C(=O)N(C)Cc4ccccc4)ccc32)cc1,inactive: 9.51%,
Cc1cccc(N(C)S(=O)(=O)c2ccc(-c3cc(C)no3)s2)c1,,inactive
COc1cccc(-n2c(=O)c3c(C)c(C(=O)N(C)C)sc3n(Cc3cccc(C)c3)c2=O)c1,,inactive
COc1cc(C(=O)N2CCN(CCc3ccncc3)CC2)cc(OC)c1OC,inactive: -1.54%,
COc1ccc(C(CNC(=O)COc2cc(C)cc(C)c2)N2CCCCC2)cc1 (centres undefined),inactive: 10.4%,
COc1ccccc1-n1nc(-c2ccccc2)c2cnc3c(F)cc(F)cc3c21,,inactive
Cc1ccc(NC(=O)Cn2c(=O)n(CC3CCC(C(=O)NC(C)C)CC3)c(=O)c3sccc32)cc1 (centres undefined),inactive: 0.0812%,
COc1ccc(-c2nc(C)c(CCNC(=O)C(=O)Nc3ccccc3F)s2)cc1,inactive: -8.3%,
Cc1cccc(NC(=O)CSc2nc3ccccc3nc2N2CCC(C)CC2)c1,inactive: -5.96%,
CCOc1ccc(N(Cc2ccccc2)C(=O)c2nc(SCC)ncc2Cl)cc1,inactive: 2.37%,
Cc1nc2c3ccccc3nc(NNC(=O)CCC(=O)N3CCN(c4cccc(Cl)c4)CC3)n2n1,,inactive
O=C(COc1ccc(F)cc1)Nc1nnc(S(=O)(=O)N2CCc3ccccc32)s1,inactive: 0.649%,
COc1ccc(S(=O)(=O)N(CC(=O)Nc2ccc(F)c(Cl)c2)c2ccc(C)cc2)cc1OC,inactive: 4.51%,
CC1CCN(C(=O)CSc2c3c(nc4ccc(Cl)cc24)CCCC3)CC1,,inactive
CN(C)CCN(C(=O)c1ccco1)c1nc2c(F)cc(F)cc2s1,inactive: -7.25%,
CC1=C(c2ccc(C(C)C)cc2)S(=O)(=O)NC1=NCc1ccccc1C,,inactive
Cc1ccc(NC(=O)CSc2nc3ccc(Br)cc3[nH]2)c(C)c1,inactive: -8.51%,
Cc1ccc(N2CC(C(=O)NCCS(=O)(=O)N3CCN(c4ccccc4F)CC3)CC2=O)cc1 (centres undefined),inactive: 1.09%,
